Data on one molecule can be found in the supplement of paper PMC8728848.

Some of the results follow.

Common to all, as to test: glycan array binding signal (z-score within array); higher = stronger binding
Conditions in all cases: glycan notation: IUPAC condensed, linker removed

In assay [1] the target is Neu5Ac(a2-6)Gal(b1-3)GlcNAc(b1-3)[Gal(b1-4)GlcNAc(b1-6)]Gal(b1-4)Glc. In short, it runs like this: (§1)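 From the Consortium for Functional Glycomics database, 3228 arrays were curated, keeping only those whose protein sequence was available. Binding is given as a within-array Z-score averaged across arrays sharing a protein sequence and across linkers. Negative Z-scores can be read as non-binding.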

In assay [2] the target is Neu5Ac(a2-6)Gal(b1-4)Glc. In short, it runs like this:
as §1

In assay [3] the target is Neu5Ac(a2-6)Gal(b1-4)GlcNAc. In outline: as §1
The target in assay [4] is Neu5Ac(a2-6)Gal(b1-4)GlcNAc(b1-2)Man. In outline: as §1
For assay [5], the target named is Neu5Ac(a2-6)Gal(b1-4)GlcNAc(b1-2)Man(a1-3)Man(b1-4)GlcNAc(b1-4)GlcNAc. In outline:
as §1

Assay [6] concerns the target Neu5Ac(a2-6)Gal(b1-4)GlcNAc(b1-2)Man(a1-3)[Gal(b1-4)GlcNAc(b1-2)Man(a1-6)]Man(b1-4)GlcNAc(b1-4)GlcNAc. In outline:
as §1

The target of assay [7] is Neu5Ac(a2-6)Gal(b1-4)GlcNAc(b1-2)Man(a1-3)[GlcNAc(b1-2)Man(a1-6)]Man(b1-4)GlcNAc(b1-4)GlcNAc. In short, it runs like this: as §1
In assay [8] the target is Neu5Ac(a2-6)Gal(b1-4)GlcNAc(b1-2)Man(a1-3)[GlcNAc(b1-4)][Neu5Ac(a2-6)Gal(b1-4)GlcNAc(b1-2)Man(a1-6)]Man(b1-4)GlcNAc(b1-4)GlcNAc. In short, it runs like this: as §1
Assay [9] addresses Neu5Ac(a2-6)Gal(b1-4)GlcNAc(b1-2)Man(a1-3)[Man(a1-6)]Man(b1-4)GlcNAc(b1-4)GlcNAc. In short, it runs like this:
as §1

Assay [10] addresses Neu5Ac(a2-6)Gal(b1-4)GlcNAc(b1-2)Man(a1-3)[Neu5Ac(a2-3)Gal(b1-4)GlcNAc(b1-2)Man(a1-6)]Man(b1-4)GlcNAc(b1-4)GlcNAc. In outline:
as §1

The target in assay [11] is Neu5Ac(a2-6)Gal(b1-4)GlcNAc(b1-2)Man(a1-3)[Neu5Ac(a2-6)Gal(b1-4)GlcNAc(b1-2)Man(a1-6)]Man(b1-4)GlcNAc(b1-4)GlcNAc. In outline: as §1
For assay [12], the target named is Neu5Ac(a2-6)Gal(b1-4)GlcNAc(b1-2)Man(a1-3)[Neu5Ac(a2-6)Gal(b1-4)GlcNAc(b1-2)Man(a1-6)]Man(b1-4)GlcNAc(b1-4)[Fuc(a1-6)]GlcNAc. In outline:
as §1

For assay [13], the target named is Neu5Ac(a2-6)Gal(b1-4)GlcNAc(b1-2)Man(a1-6)Man(b1-4)GlcNAc(b1-4)GlcNAc. In outline:
as §1

Assay [14] addresses Neu5Ac(a2-6)Gal(b1-4)GlcNAc(b1-2)Man(a1-6)[Gal(b1-4)GlcNAc(b1-2)Man(a1-3)]Man(b1-4)GlcNAc(b1-4)GlcNAc. In outline: as §1
The target in assay [15] is Neu5Ac(a2-6)Gal(b1-4)GlcNAc(b1-2)Man(a1-6)[GlcNAc(b1-2)Man(a1-3)]Man(b1-4)GlcNAc(b1-4)GlcNAc. In outline:
as §1

The target of assay [16] is Neu5Ac(a2-6)Gal(b1-4)GlcNAc(b1-2)Man(a1-6)[Man(a1-3)]Man(b1-4)GlcNAc(b1-4)GlcNAc. In outline: as §1
Assay [17] concerns the target Neu5Ac(a2-6)Gal(b1-4)GlcNAc(b1-2)[Neu5Ac(a2-6)Gal(b1-4)GlcNAc(b1-4)]Man(a1-3)[GlcNAc(b1-4)][Neu5Ac(a2-6)Gal(b1-4)GlcNAc(b1-2)[Neu5Ac(a2-6)Gal(b1-4)GlcNAc(b1-6)]Man(a1-6)]Man(b1-4)GlcNAc(b1-4)GlcNAc. In short, it runs like this:
as §1

For assay [18], the target named is Neu5Ac(a2-6)Gal(b1-4)GlcNAc(b1-2)[Neu5Ac(a2-6)Gal(b1-4)GlcNAc(b1-4)]Man(a1-3)[GlcNAc(b1-4)][Neu5Ac(a2-6)Gal(b1-4)GlcNAc(b1-4)Man(a1-6)]Man(b1-4)GlcNAc(b1-4)GlcNAc. In outline: as §1
In assay [19] the target is Neu5Ac(a2-6)Gal(b1-4)GlcNAc(b1-2)[Neu5Ac(a2-6)Gal(b1-4)GlcNAc(b1-6)]Man(a1-6)[Neu5Ac(a2-6)Gal(b1-4)GlcNAc(b1-2)Man(a1-3)][GlcNAc(b1-4)]Man(b1-4)GlcNAc(b1-4)GlcNAc. In outline: as §1
For assay [20], the target named is Neu5Ac(a2-6)Gal(b1-4)GlcNAc(b1-3)Gal(b1-3)GlcNAc. In outline:
as §1

For assay [21], the target named is Neu5Ac(a2-6)Gal(b1-4)GlcNAc(b1-3)Gal(b1-4)GlcNAc. In short, it runs like this:
as §1

In assay [22] the target is Neu5Ac(a2-6)Gal(b1-4)GlcNAc(b1-3)Gal(b1-4)GlcNAc(b1-2)Man(a1-3)[Neu5Ac(a2-6)Gal(b1-4)GlcNAc(b1-3)Gal(b1-4)GlcNAc(b1-2)Man(a1-6)]GalNAc. In short, it runs like this:
as §1

Assay [23] addresses Neu5Ac(a2-6)Gal(b1-4)GlcNAc(b1-3)Gal(b1-4)GlcNAc(b1-3)Gal(b1-4)GlcNAc. In outline:
as §1

B1: CAA (Caragana arborescens) (protein)
chain: VAVEFDTFDNPDWDPRTKHIGIDVNSIRSNKTTQWGFWNRQVADVDISYEASSKTLNVSLYYPGESYIVTDVVDLKDILPEWVRIGF
On to B1, for which the “glycan array binding signal (z-score)” value was -0.238 in [1]; -0.243 in assay [2]; -0.239 in [3]; -0.259 in [4]; -0.248 in [5]; 2.13 in assay [6]. Further, the “glycan array binding signal (z-score)” value in assay [7] was 2.15; in assay [8], -0.251; in assay [9], 0.613; in assay [10], 2.38; in assay [11], 2.31; in assay [12], 3.38. In addition, the “glycan array binding signal (z-score)” value was -0.233 in assay [13]; 3.9 in [14]; 5.95 in assay [15]; 0.262 in assay [16]; -0.125 in assay [17]; -0.245 in assay [18]. For the same molecule, the “glycan array binding signal (z-score)” value in assay [19] is -0.254; in assay [20], -0.255; in assay [21], -0.246; in assay [22], -0.184; in assay [23], -0.242.
